Assay results from publication PMC4440780.

Biological target: T1, IscU-(his)6, wild-type E. coli IscU scaffold protein (E. coli), P0ACD4
T1 chain: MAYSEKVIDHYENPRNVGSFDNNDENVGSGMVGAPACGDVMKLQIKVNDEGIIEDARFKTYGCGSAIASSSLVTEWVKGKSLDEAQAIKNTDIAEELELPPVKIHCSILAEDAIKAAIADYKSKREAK
Assay: SEC; gel filtration on Superdex 75 10/300 GL in 0.1 M Tris-HCl pH 8, 50 mM NaCl; oligomeric state from a calibration curve (ribonuclease A, chymotrypsinogen A, ovalbumin)
Conditions: remark: other sources report otherwise

B1: IscU-(his)6, wild-type E. coli IscU scaffold protein, P0ACD4 1-128 (natural protein)
chain: T1 chain
Question: Which stoichiometry N does the source give for B1 here?
Answer: 2
